Data published in paper PMC12102759 (2025).

B1: CAPRIN1 peptide 364-379 (Caprin-1), 16-mer library wild type / G3BP1 NFT2 (G3BP1 NTF2 domain, […]) (parent complex)
chain 1: AQMQGPYNFIQDSMLD
chain 2: not shown

Variants of: B1
Assay: proteomic peptide phage display deep mutational scan (ProP-PD DMS): M13 P8 16-mer library selected against immobilised GST-tagged bait for four days (rounds), NGS of the eluted pools per day and pseudo-replica; bait immobilised on MaxiSorp plates (10 µg), library pre-cleared on GST, 2 h binding at 4 °C, five washes; one round per day, days 1-4; value from days 2 and 3

Compared with chain 1 Q4E, chain 1 Q4S is higher in screen value: 0.00014 average fractional NGS count over selection days 2 and 3 (reads of this peptide / all reads for the bait, averaged over … for the first, 0.00115 average fractional NGS count over selection days 2 and 3 (reads of this peptide / all reads for the bait, averaged over … for the second.

Compared with chain 1 Q4D, chain 1 M3L is lower in screen value: 0.0851 average fractional NGS count over selection days 2 and 3 (reads of this peptide / all reads for the bait, averaged over … for the first, 0.00308 average fractional NGS count over selection days 2 and 3 (reads of this peptide / all reads for the bait, averaged over … for the second.

Compared with chain 1 M3K, chain 1 M3P is lower in screen value: 0.000885 average fractional NGS count over selection days 2 and 3 (reads of this peptide / all reads for the bait, averaged over … for the first, 0.000124 average fractional NGS count over selection days 2 and 3 (reads of this peptide / all reads for the bait, averaged over … for the second.

Going from chain 1 M3N to chain 1 M3V, the screen value rises from 0.000297 average fractional NGS count over selection days 2 and 3 (reads of this peptide / all reads for the bait, averaged over … to 0.00499 average fractional NGS count over selection days 2 and 3 (reads of this peptide / all reads for the bait, averaged over ….

Compared with chain 1 Q2P, chain 1 Q2F is higher in screen value: 0.00278 average fractional NGS count over selection days 2 and 3 (reads of this peptide / all reads for the bait, averaged over … for the first, 0.0275 average fractional NGS count over selection days 2 and 3 (reads of this peptide / all reads for the bait, averaged over … for the second.

First: chain 1 Q2D
Second: chain 1 Y7L
The screen value of the first is lower: 0.000271 average fractional NGS count over selection days 2 and 3 (reads of this peptide / all reads for the bait, averaged over … for the first, 0.00463 average fractional NGS count over selection days 2 and 3 (reads of this peptide / all reads for the bait, averaged over … for the second.

Compared with chain 1 N8E, chain 1 N8L is higher in screen value: 0.000764 average fractional NGS count over selection days 2 and 3 (reads of this peptide / all reads for the bait, averaged over … for the first, 0.0106 average fractional NGS count over selection days 2 and 3 (reads of this peptide / all reads for the bait, averaged over … for the second.

Compared with chain 1 N8T, chain 1 N8K is lower in screen value: 0.00181 average fractional NGS count over selection days 2 and 3 (reads of this peptide / all reads for the bait, averaged over … for the first, 0.00135 average fractional NGS count over selection days 2 and 3 (reads of this peptide / all reads for the bait, averaged over … for the second.

Going from chain 1 A1L to chain 1 A1W, the screen value falls from 0.00141 average fractional NGS count over selection days 2 and 3 (reads of this peptide / all reads for the bait, averaged over … to 0.000626 average fractional NGS count over selection days 2 and 3 (reads of this peptide / all reads for the bait, averaged over ….

Compared with chain 1 A1P, chain 1 M14Y is higher in screen value: 0.000523 average fractional NGS count over selection days 2 and 3 (reads of this peptide / all reads for the bait, averaged over … for the first, 0.000624 average fractional NGS count over selection days 2 and 3 (reads of this peptide / all reads for the bait, averaged over … for the second.

Going from chain 1 M14S to chain 1 Q11V, the screen value rises from 0.000108 average fractional NGS count over selection days 2 and 3 (reads of this peptide / all reads for the bait, averaged over … to 0.00065 average fractional NGS count over selection days 2 and 3 (reads of this peptide / all reads for the bait, averaged over ….

Going from chain 1 Q11H to chain 1 D12G, the screen value rises from 0.000376 average fractional NGS count over selection days 2 and 3 (reads of this peptide / all reads for the bait, averaged over … to 0.00045 average fractional NGS count over selection days 2 and 3 (reads of this peptide / all reads for the bait, averaged over ….

Going from chain 1 D12Q to chain 1 G5Y, the screen value rises from 0.000599 average fractional NGS count over selection days 2 and 3 (reads of this peptide / all reads for the bait, averaged over … to 0.000955 average fractional NGS count over selection days 2 and 3 (reads of this peptide / all reads for the bait, averaged over ….

First: chain 1 G5S
Second: chain 1 G5I
The screen value of the first is higher: 0.0159 average fractional NGS count over selection days 2 and 3 (reads of this peptide / all reads for the bait, averaged over … for the first, 0.00166 average fractional NGS count over selection days 2 and 3 (reads of this peptide / all reads for the bait, averaged over … for the second.

Compared with chain 1 G5W, chain 1 P6Q is higher in screen value: 0.000297 average fractional NGS count over selection days 2 and 3 (reads of this peptide / all reads for the bait, averaged over … for the first, 0.000413 average fractional NGS count over selection days 2 and 3 (reads of this peptide / all reads for the bait, averaged over … for the second.

Compared with chain 1 P6K, chain 1 P6M is higher in screen value: 0.000974 average fractional NGS count over selection days 2 and 3 (reads of this peptide / all reads for the bait, averaged over … for the first, 0.00513 average fractional NGS count over selection days 2 and 3 (reads of this peptide / all reads for the bait, averaged over … for the second.

chain 1 P6I was tested, and the screen value was 0.000671 average fractional NGS count over selection days 2 and 3 (reads of this peptide / all reads for the bait, averaged over ….
